Data on three compounds can be found in patent US11542275B2, “Substituted imidazolidin-2-one derivatives as PRMT5 inhibitors” (Aurigene Discovery Technologies Limited, priority 2018, dated 2023).

The target of the assay is PRMT5/MEP50 Complex (Homo sapiens (Human), UniProt O14744). Kind of assay: PRMT5 inhibition based on TR-FRET assay. The format is biochemical. Particulars: 32 nM PRMT5:MEP50 complex, 50 nM Histone-H4 peptide, 1 μM SAM, 90 minutes at room temperature. The source says:
Protein arginine methyltransferase 5 (PRMT5) is a type II arginine methyltransferase that catalyze mono- and symmetric demethylation on arginine residues of histone or non-histone proteins in presence of S-adenosylmethionine (AdoMet or SAM) a cofactor responsible for donating the methyl group. PRMT5 is reported to be overexpressed in several human cancers. To identify compounds that inhibit the PRMT5 and decrease its activity, a TR-FRET based assay has been established. Time-resolved fluorescence resonance energy transfer (TR-FRET) HTS assays are homogeneous proximity assays where the interaction of two dye-labeled binding partners is detected by the energy transfer between a donor and an acceptor dye, and the subsequent light emission by the acceptor dye. PRMT5 catalyzes Histone H4 peptide which is biotin tagged to the Lysine amino acid at carboxyl end, in presence of S-adenosyl-1-methionine (SAM) to methylate the peptide. The antibody specific to mono methylated H4 peptide (H4R3) with Ig conjugate binds to the methylated peptide, indirectly binding to the Europium lanthanide. SureLight Allophycocyanin-Streptavidin binds to the biotin tag of the peptide, therefore accepting the energy transferred from the Europium lanthanide. This energy transfer between Europium to SureLight Allophycocyanin is a direct measure of the activity/inhibition of the PRMT5 enzyme.
Assay buffer: 20 mM BICINE (pH 7.6), 25 mM NaCl, 2 mM DTT, 0.01% Tween-20 and 0.01% BSA.
The compound dilutions were prepared as 7.5% DMSO stock solutions in assay buffer. To 2 μL (7.5×) of test compound, 5 μL of PRMT5 enzyme prepared in assay buffer (Final concentration of 32 nM in 15 μL reaction volume) was added and allowed for 30 minutes pre-incubation time in a white polystyrene 384-well plate at room temperature. […] The plates were then read on Victor-3 with Excitation at 340 nm and Emissions collected at 615 and 665 nm in TR-FRET protocol. […]
For orientation: In TR-FRET formats the signal depends on donor and acceptor labels being close together.

What is called IC50 is the concentration that gives 50% inhibition. Higher therefore signals weaker potency in that assay.

The compound `O=C1N(Cc2ccc(N3CC4(COC4)C3)cn2)CCN1C[C@H](O)CN1CCc2ccccc2C1` [Compound 5, (R)-1-((5-(2-oxa-6-azaspiro[3.3]heptan-6-yl)pyridin-2-yl)methyl)-3-(3-(3,4-dihydroisoquinolin-2(1H)-yl)-2-hydroxypropyl)imidazolidin-2-one] registered an IC50 of 50 nM. This counts as double-digit nanomolar. In the case of `N#CC1CCN(c2ccc(CN3CCN(C[C@H](O)CN4CCc5ccccc5C4)C3=O)nc2)CC1` [Compound 9, (R)-1-(6-((3-(3-(3,4-dihydroisoquinolin-2(1H)-yl)-2-hydroxypropyl)-2-oxoimidazolidin-1-yl)methyl)pyridin-3-yl)piperidine-4-carbonitrile] it was 58 nM. In the case of `O=C(c1ncc(-c2ccc(CN3CCN(C[C@H](O)CN4CCc5ccccc5C4)C3=O)cn2)cn1)N1CCCC1` [Compound 103, (R)-1-(3-(3,4-dihydroisoquinolin-2(1H)-yl)-2-hydroxypropyl)-3-((6-(2-(pyrrolidine-1-carbonyl)pyrimidin-5-yl)pyridin-3-yl)methyl)imidazolidin-2-one] it was 39 nM.
